The list shows a part of the results. Values were computed here from the reads of four pooled replicates and scatter widely.
The sequences below were run against T1, Pho4 (S. cerevisiae) (UniProt P07270) (assay: relative binding free energy (BET-seq); higher = weaker binding). Settings: reference: library average.
T1 sequence: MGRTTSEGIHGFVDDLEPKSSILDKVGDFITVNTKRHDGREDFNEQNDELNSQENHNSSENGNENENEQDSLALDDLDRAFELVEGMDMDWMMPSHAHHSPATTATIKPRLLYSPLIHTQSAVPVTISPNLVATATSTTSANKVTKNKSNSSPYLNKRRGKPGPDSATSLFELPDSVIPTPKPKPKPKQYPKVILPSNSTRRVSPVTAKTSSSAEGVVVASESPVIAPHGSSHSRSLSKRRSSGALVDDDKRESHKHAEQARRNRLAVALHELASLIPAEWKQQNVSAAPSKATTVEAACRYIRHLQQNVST

Relative binding free energy, 0.13 kcal/mol:
AGTTACACGTGTTAGT, CGTGTCACGTGAGTAG

Relative binding free energy, 0.47 kcal/mol:
GGAATCACGTGGAATA

Relative binding free energy, -0.01 kcal/mol:
GTTGCCACGTGTAGTA, TTTTACACGTGTCTTA, GGTGGCACGTGGCGAA, AGGAGCACGTGTTATG

Relative binding free energy, 0.37 kcal/mol:
TTATTCACGTGAGTTA, GGTTTCACGTGGAGTC

Relative binding free energy, -0.05 kcal/mol:
AGCTGCACGTGTTGTA, GTGGCCACGTGGCGGA, GGTGACACGTGGTGTT, AGGGTCACGTGGGGTA

Relative binding free energy, 0.31 kcal/mol:
AGATACACGTGTAAGG

Relative binding free energy, 0.08 kcal/mol:
CATTGCACGTGTGTGT, TGGTGCACGTGTGGGC, TTTGTCACGTGCTAAA, TGTGGCACGTGAGGGA

Relative binding free energy, 0.39 kcal/mol:
GAGTTCACGTGGTAAG, GCGGTCACGTGAGGCT, CTTTTCACGTGTGGGC

Relative binding free energy, 0.26 kcal/mol:
TGTCTCACGTGATGTG, CGTTCCACGTGAGGGT

Relative binding free energy, 0.11 kcal/mol:
TATGACACGTGTCGGA, CGGGCCACGTGAGTTG, ACTGTCACGTGTAATG, GTTGTCACGTGTATAC, GATATCACGTGGTGGT, TGTATCACGTGGTAAG, ATTTCCACGTGAGTGT, TTCATCACGTGGAGTG

Relative binding free energy, 0.28 kcal/mol:
TGTGTCACGTGATTGA, TATTCCACGTGTGGGG, AAATTCACGTGGATGG, TTGGTCACGTGAAAAT, TTTGACACGTGAGTAT

Relative binding free energy, 0.09 kcal/mol:
AATTACACGTGTGTTT, TAATACACGTGTGATT, CTGATCACGTGCGGGG, CGGTACACGTGGTTCG, GTGTGCACGTGACGGC, GGAGCCACGTGATTGT

Relative binding free energy, 0.12 kcal/mol:
TGGGTCACGTGGATGT, ATGTTCACGTGGTTGT, TTTTACACGTGATCGT, TCCGTCACGTGGTTTT, GTTGTCACGTGCTGTG, TGAGTCACGTGGTCTT, TGGGACACGTGATGCA, ACGGTCACGTGAGCGG

Relative binding free energy, 0.46 kcal/mol:
GAATTCACGTGTTGAA

Relative binding free energy, 0.52 kcal/mol:
TTTCTCACGTGTGATA

Relative binding free energy, 0.07 kcal/mol:
GATTGCACGTGCGTGT, GCCATCACGTGGGGTG, GTCGGCACGTGTCAGT, AGTAGCACGTGTGAAT

Relative binding free energy, -0.07 kcal/mol:
ATAGGCACGTGATGTC, GTATGCACGTGTAGAG, TTGAGCACGTGTGTGG, TATAACACGTGTGCTG, GGCGGCACGTGCGGCG, TGGAACACGTGGTGTT, CGATGCACGTGCGTGG

Relative binding free energy, 0.18 kcal/mol:
GGTATCACGTGTGTGA, TGAGTCACGTGCGGTA, CTGAACACGTGTGGTG

Relative binding free energy, -0.03 kcal/mol:
TTGAGCACGTGGCTTG, TTAGGCACGTGCGAAT, ACATGCACGTGTTAGG, GCTATCACGTGGTGGT

Relative binding free energy, -0.17 kcal/mol:
TTTGGCACGTGGGCGA, TGTAGCACGTGGTGAA, AGTGGCACGTGGCGTC

Relative binding free energy, 0.44 kcal/mol:
AGCGTCACGTGAATAG

Relative binding free energy, -0.11 kcal/mol:
GTTAGCACGTGCTGGC, GTGAGCACGTGCTGGA, TTAGGCACGTGTCGTA, TGGGGCACGTGCTGCC, TGGATCACGTGCTGTA

Relative binding free energy, 0.17 kcal/mol:
GGATTCACGTGCAGTG, GGAATCACGTGGAGAG

Relative binding free energy, -0.36 kcal/mol:
GTCCGCACGTGGGTGG

Relative binding free energy, 0.49 kcal/mol:
TTTCTCACGTGATGAA

Relative binding free energy, 0.22 kcal/mol:
GCTTTCACGTGATAGT

Relative binding free energy, 0.38 kcal/mol:
CTTGACACGTGAATTT

Relative binding free energy, 0.01 kcal/mol:
GTAACCACGTGTTGGG, GGTTGCACGTGCAAGG, TTGTACACGTGCGTGT, TGTGACACGTGGATAT, GTGAGCACGTGATGTG, ACAGTCACGTGGATTG, AGGGACACGTGTTTGC

Relative binding free energy, -0.27 kcal/mol:
CGTGCCACGTGGGGGG, AGGCGCACGTGGGTTA, ATGTGCACGTGGGGCA, TTCGGCACGTGGGCGG

Relative binding free energy, 0.19 kcal/mol:
TAGTTCACGTGGGAGG, AGATTCACGTGGCGAT

Relative binding free energy, -0.09 kcal/mol:
GCGAGCACGTGGTGAT, TGCGCCACGTGTAGGT

Relative binding free energy, 0.03 kcal/mol:
GCATGCACGTGTGAGT, CCATTCACGTGGGGGT, TTCATCACGTGGTATT, GGGTCCACGTGTGTGA, GTTTGCACGTGGGATG, TTAAGCACGTGCAGTA

Relative binding free energy, 0.32 kcal/mol:
ATGGTCACGTGTTCCT, GGAATCACGTGTCTGT

Relative binding free energy, 0.41 kcal/mol:
TATTTCACGTGTTGAA, TACTTCACGTGAGTTT

Relative binding free energy, -0.13 kcal/mol:
TGTGGCACGTGGTTAC, CTGAGCACGTGTTTTT

Relative binding free energy, 0.04 kcal/mol:
TTCTACACGTGTAGGT, CCTGACACGTGTGTGG, GTCGTCACGTGCTGTT, TGGTGCACGTGTATGG, TTTAGCACGTGTTGCT, ATACTCACGTGGTTTT, ATTGTCACGTGGCTGG, TAGGGCACGTGATTCA

Relative binding free energy, -0.4 kcal/mol:
CTACGCACGTGGGGTG

Relative binding free energy, 0.34 kcal/mol:
GTGTTCACGTGTTTTA, GTTTTCACGTGTCTAT

Relative binding free energy, -0.16 kcal/mol:
TGGTGCACGTGCATGA, ACATGCACGTGGTAGT, AGTGGCACGTGCAGGC

Relative binding free energy, 0.16 kcal/mol:
CTGTTCACGTGGAGGC, TGTTACACGTGTTTTC, GGGATCACGTGCGTTG, TATTTCACGTGTGTAA, ACAGTCACGTGTGTTG, GTTATCACGTGATAAG

Relative binding free energy, -0.24 kcal/mol:
AGTGCCACGTGCAGGG

Relative binding free energy, 0.25 kcal/mol:
GGCCTCACGTGGTATG, CTAGTCACGTGATATT, TTGTTCACGTGGGATA

Relative binding free energy, -0.14 kcal/mol:
CTTAACACGTGGTGTG, TAAGGCACGTGGAGGT, CGGTGCACGTGGTGTG

Relative binding free energy, -0.32 kcal/mol:
CATGGCACGTGGGGTA

Relative binding free energy, -0.06 kcal/mol:
TGGCGCACGTGGGAGA, CGGTGCACGTGGGATT, TATGGCACGTGTTAAG

Relative binding free energy, 0.06 kcal/mol:
TTTGACACGTGTGGGG, ATAATCACGTGGTCGT, TGTATCACGTGTGCAT, GGAGTCACGTGGCAGG, TTAAGCACGTGACAGT, ATTTGCACGTGCAGTG

Relative binding free energy, -0.08 kcal/mol:
GGGGGCACGTGTGCGA

Relative binding free energy, -0.26 kcal/mol:
TATACCACGTGGGGGT

Relative binding free energy, -0.22 kcal/mol:
TACTGCACGTGGGATG

Relative binding free energy, -0.02 kcal/mol:
GTGGACACGTGCGAGG

Relative binding free energy, 0.23 kcal/mol:
TGGAGCACGTGAGGCG, TTTTGCACGTGTGAAT, ATGTTCACGTGCGGAT

Relative binding free energy, -0.1 kcal/mol:
TCAAGCACGTGGTATT, TGACGCACGTGCGGAG, TTCGGCACGTGCTATG, AGGTGCACGTGGGGAC

Relative binding free energy, -0.12 kcal/mol:
GCGGGCACGTGTACGG, GTAGCCACGTGGCGTG, TTGGGCACGTGATCTT, AGATGCACGTGGGGGT, TGGGGCACGTGGTGTT

Relative binding free energy, 0.02 kcal/mol:
CAAGGCACGTGGATGA, AAAGACACGTGGTATG, TACTGCACGTGATGTA, GATAGCACGTGTTCGG, CGAGGCACGTGTAGTG

Relative binding free energy, 0.36 kcal/mol:
GTGTTCACGTGACGGT

Relative binding free energy, 0.15 kcal/mol:
GGTGTCACGTGATCGA, CGGTACACGTGTGTTG, TGTGTCACGTGTTCGG

Relative binding free energy, 0.2 kcal/mol:
CTTTGCACGTGAAAGT, TCTTTCACGTGGAGGG

Relative binding free energy, 0.21 kcal/mol:
TTCAGCACGTGATATG, GGTAACACGTGAGGAT, ATGTCCACGTGAGTGA, ATAATCACGTGTGGCT, CTTGTCACGTGAGAGT, AAGTTCACGTGATGCG, GTTGACACGTGTTCGG, GAGTACACGTGGTAAT, GTTTACACGTGTTGGG, CAATTCACGTGTGGAT

Relative binding free energy, -0.23 kcal/mol:
GCTGGCACGTGGCAGG, TGGTGCACGTGCACGT

Relative binding free energy, 0.24 kcal/mol:
AGTTTCACGTGAATTA

Relative binding free energy, 0 kcal/mol:
TCGGGCACGTGATAGG, TGTAACACGTGTAGTT

Relative binding free energy, 0.33 kcal/mol:
TGTTTCACGTGTGTTC, GGTCTCACGTGGTGTT, AGTTTCACGTGAGCAG, GTTGACACGTGAGGGT, TTTGTCACGTGAGGGA

Relative binding free energy, 0.05 kcal/mol:
CAGTACACGTGTTTTT, TTTCGCACGTGTAATA, GGGTACACGTGCCGGG, GGAGGCACGTGTATGC, ATACTCACGTGTAGTG, GTGTGCACGTGCGAGT

Relative binding free energy, 0.27 kcal/mol:
GATATCACGTGTCGTT, ATTTTCACGTGATTAG

Relative binding free energy, -0.2 kcal/mol:
GTGGCCACGTGGGTTT

Relative binding free energy, -0.25 kcal/mol:
AGCGGCACGTGGGTGG, TAAAGCACGTGGTATG

Relative binding free energy, 0.29 kcal/mol:
CGGTTCACGTGCATTT, GGTTTCACGTGGTACA, GTTAACACGTGATTGT

Relative binding free energy, 0.51 kcal/mol:
GAGTTCACGTGATATA

Relative binding free energy, 0.1 kcal/mol:
CTTTTCACGTGGTGTG, CTTATCACGTGTTAGT, CTTAGCACGTGATTTG, AGCATCACGTGTTAGT, TTGGCCACGTGATGTT

Relative binding free energy, -0.18 kcal/mol:
TTCAGCACGTGGGGTT, GCTTGCACGTGGGGGC, AGTGGCACGTGGAGTA

Relative binding free energy, 0.14 kcal/mol:
GGGTCCACGTGATAGT, GTGGGCACGTGACTCG

Relative binding free energy, -0.04 kcal/mol:
GATGGCACGTGATTAA, TGAGTCACGTGCGGGT

Relative binding free energy, 0.3 kcal/mol:
CTTTTCACGTGTTGTG, GTTAACACGTGAGGGG, TTCTTCACGTGTGAGA, CATTTCACGTGTGGTT, TTGTTCACGTGTACAT

Relative binding free energy, -0.21 kcal/mol:
GTACGCACGTGGTCGT, CGTAGCACGTGGTATT
